Results: PMC4336329 (PLoS ONE, 2015)
Hit rate of the full screen: of about 310,000 compounds, about 14,000 (4.5%) showed an effect of 50% or more. The effect is printed as a negative number. The list shows a part of the results.

target: human ether-à-go-go-related gene (hERG) potassium channel (human, UniProt Q12809); experiment: primary screen, population patch clamp on CHO cells stably expressing hERG
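Further: peak tail current of the secondary pulse compared with the same well before compound.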

Chain of human ether-à-go-go-related gene (hERG) potassium channel (Q12809 whole entry, looked up): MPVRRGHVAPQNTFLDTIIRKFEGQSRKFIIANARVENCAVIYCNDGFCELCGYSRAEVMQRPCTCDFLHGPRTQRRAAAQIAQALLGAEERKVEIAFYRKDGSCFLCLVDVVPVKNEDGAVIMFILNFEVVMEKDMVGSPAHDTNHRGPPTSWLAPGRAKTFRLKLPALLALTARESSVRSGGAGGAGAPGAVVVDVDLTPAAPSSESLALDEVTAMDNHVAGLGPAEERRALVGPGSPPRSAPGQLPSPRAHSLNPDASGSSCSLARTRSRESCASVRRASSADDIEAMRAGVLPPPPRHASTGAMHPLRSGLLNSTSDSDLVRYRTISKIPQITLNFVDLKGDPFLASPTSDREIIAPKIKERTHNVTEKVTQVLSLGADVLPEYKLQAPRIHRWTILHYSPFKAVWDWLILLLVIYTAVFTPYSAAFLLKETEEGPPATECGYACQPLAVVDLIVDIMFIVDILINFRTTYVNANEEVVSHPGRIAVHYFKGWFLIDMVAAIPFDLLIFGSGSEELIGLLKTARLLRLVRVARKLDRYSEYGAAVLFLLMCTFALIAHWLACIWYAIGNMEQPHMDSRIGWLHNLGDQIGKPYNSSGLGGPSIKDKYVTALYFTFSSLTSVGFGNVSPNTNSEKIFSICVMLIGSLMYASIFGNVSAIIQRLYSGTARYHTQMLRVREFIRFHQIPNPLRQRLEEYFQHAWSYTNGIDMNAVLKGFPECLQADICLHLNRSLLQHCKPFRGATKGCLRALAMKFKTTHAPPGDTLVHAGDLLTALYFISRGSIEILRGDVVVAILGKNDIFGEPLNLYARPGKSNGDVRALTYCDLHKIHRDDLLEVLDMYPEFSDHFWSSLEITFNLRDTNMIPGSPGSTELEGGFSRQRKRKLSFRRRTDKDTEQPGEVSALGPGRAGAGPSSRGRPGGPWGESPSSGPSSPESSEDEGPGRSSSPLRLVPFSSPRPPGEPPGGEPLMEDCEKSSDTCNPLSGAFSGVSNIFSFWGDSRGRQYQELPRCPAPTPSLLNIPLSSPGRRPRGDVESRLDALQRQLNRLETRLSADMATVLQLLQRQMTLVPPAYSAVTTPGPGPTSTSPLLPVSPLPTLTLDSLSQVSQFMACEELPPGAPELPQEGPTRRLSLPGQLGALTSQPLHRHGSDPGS

Compared with `O=C(O/N=C1/CCCc2occc21)c1ccc(F)cc1`, `O=c1c(Cc2ccc(F)cc2)c(O)ccn1C1CC1` is lower in “hERG current change (%, negative = inhibition) at 10uM” value: 56.5% for the first, 15% for the second.

First: CCn1c(SCC(=O)Nc2cccc(OC)c2)nnc1-c1ccc(Cl)cc1
Second: Cn1c(SCC(=O)NC2CC2)nnc1-c1ccc(Cl)cc1
The “hERG current change (%, negative = inhibition) at 10uM” value of the first is higher: 9.25% for the first, 3.25% for the second.

Compared with `O=C(NCc1ccc(F)cc1)C1CCC(CNS(=O)(=O)c2cccs2)CC1` (stereo not shown), `Cc1ccc(C(=O)NCCNS(=O)(=O)c2ccccc2)cn1` is higher in “hERG current change (%, negative = inhibition) at 10uM” value: -7.03% for the first, 12.7% for the second.

First: NC(=O)c1cnn(-c2cccc(Cl)c2)c1N
Second: CC(=O)Nc1ccn(Cc2c(F)cccc2Cl)n1
The “hERG current change (%, negative = inhibition) at 10uM” value of the first is lower: 1.32% for the first, 13.5% for the second.

First: COc1ccccc1C(=O)C1Nc2ccccc2-c2nnc(SC)nc2O1 (stereo not shown)
Second: COc1ccccc1CNc1cc(CSc2ccc(Cl)cc2)nc(C)n1
The “hERG current change (%, negative = inhibition) at 10uM” value of the first is lower: -11.6% for the first, -0.554% for the second.

Compared with `Cc1ccsc1/C=N/n1c(-c2cc(-c3ccccc3)n[nH]2)n[nH]c1=S`, `Br.Cc1ccnc(Nc2nc(-c3ccccc3)cs2)c1` is lower in “hERG current change (%, negative = inhibition) at 10uM” value: 21.2% for the first, -3.4% for the second.

Compared with `COCCn1c(=O)[nH]c2cc(C(=O)N3CCN(c4ccc(OC)cc4)CC3)ccc2c1=O`, `COc1ccc(N2CCN(C(=O)c3ccc(NS(=O)(=O)c4ccc(F)c(F)c4)cc3)CC2)cc1` is lower in “hERG current change (%, negative = inhibition) at 10uM” value: -4.32% for the first, -44.3% for the second.

Going from `O=C(N/C=N/OCc1ccc(Cl)cc1Cl)NOCc1ncc(C(F)(F)F)cc1Cl` to `S=c1[nH]ncn1NCc1ccc(Cl)cc1Cl`, the “hERG current change (%, negative = inhibition) at 10uM” value falls from 14.6% to 10.2%.

Going from `O=C(Nc1cc(Cl)ccc1Cl)N1CCCC1` to `O=C(Nc1ccccc1[N+](=O)[O-])c1ccc(S(=O)(=O)N2CCCC2)cc1`, the “hERG current change (%, negative = inhibition) at 10uM” value rises from 1.62% to 1.84%.

Compared with `CCOC(=O)c1c(NC(=O)c2ccccc2Br)sc2c1CCc1ccccc1-2`, `CCn1c(NC(=O)c2ccccc2)c(-c2cccs2)c(=O)c2ccccc21` is lower in “hERG current change (%, negative = inhibition) at 10uM” value: 23.5% for the first, 0.859% for the second.

First: COc1ccc(Nc2nc(=O)[nH]nc2C)cc1
Second: COc1ccc(NC2CC(=O)N(c3cccc(C)c3)C2=O)cc1 (stereo not shown)
The “hERG current change (%, negative = inhibition) at 10uM” value of the first is higher: 19.2% for the first, 12.9% for the second.

Compared with `O=C(CSc1nnc2c(n1)[nH]c1ccc(F)cc12)NC1CC1`, `Cc1ccc(NC(=O)CSc2ncn(-c3ccccc3)n2)cc1C` is higher in “hERG current change (%, negative = inhibition) at 10uM” value: -5.27% for the first, -0.35% for the second.

First: COc1cc(/C=N/NC(=O)COc2cc(C)cc(C)c2)ccc1OS(=O)(=O)c1ccc(C)cc1
Second: CCOc1ccc(/C=C2\CCCc3c2nc2ccccc2c3C(=O)O)cc1OC
The “hERG current change (%, negative = inhibition) at 10uM” value of the first is higher: 8.61% for the first, 4.76% for the second.

First: CCOC(=O)CCc1cccc2c1CCC2=O
Second: COc1ccccc1NCCC(=O)OCC(=O)NCc1ccco1
The “hERG current change (%, negative = inhibition) at 10uM” value of the first is lower: 12.5% for the first, 23.7% for the second.

Compared with `CCCC1OC2CC3C4CCC5=CC(=O)C=CC5(C)C4C(O)CC3(C)C2(C(=O)O)O1` (stereo not shown), `CCCCc1nc2sc3c(c2c(=O)n1NC(=O)c1ccco1)CC(C)(C)OC3` is lower in “hERG current change (%, negative = inhibition) at 10uM” value: 8.24% for the first, 6.37% for the second.

Compared with `COc1cccc(-n2nnc3c(=O)n(Cc4ccc(Cl)cc4)cnc32)c1`, `CCNC(=O)CSc1nc2ccccc2c(=O)n1-c1cccc(OC)c1` is higher in “hERG current change (%, negative = inhibition) at 10uM” value: 4.62% for the first, 32.7% for the second.

Going from `O=C(CCn1c(=O)c2cccn2c2cccnc21)N1CCN(c2cccc(Cl)c2)CC1` to `O=C(c1cccc(S(=O)(=O)Nc2ccccc2F)c1)N1CCN(c2ccccc2F)CC1`, the “hERG current change (%, negative = inhibition) at 10uM” value rises from -58.8% to -21.5%.

First: COc1ccccc1NC(=S)NCC1CCCCC1
Second: CC(=O)Nc1cccc(C(=O)NCC2(N3CCCCC3)CCCCC2)c1
The “hERG current change (%, negative = inhibition) at 10uM” value of the first is lower: -30.6% for the first, 19.4% for the second.

Compared with `C=CCOc1ccc(C2CC(C)=NN2c2ccccc2)cc1` (stereo not shown), `COC(=O)Cn1c(=O)c2c(n(Cc3ccccc3)c1=O)N/C(=C/c1ccc(OC)cc1)C2=O` is lower in “hERG current change (%, negative = inhibition) at 10uM” value: 10.3% for the first, 1.39% for the second.

Compared with `CCN(CC(=O)Nc1ccc(NC(C)=O)cc1)C(=O)COc1ccccc1Cc1ccccc1`, `CCN(CC(=O)Nc1ccc(NC(C)=O)cc1)C(=O)c1ccc2c(c1)OCO2` is higher in “hERG current change (%, negative = inhibition) at 10uM” value: -18.9% for the first, 5.64% for the second.

First: COc1ccc(C(=O)C2CN(C)CC2C(=O)c2ccc(OC)cc2)cc1 (stereo not shown)
Second: CCOc1ccc(C(=O)Oc2ccc(NC(C)=O)cc2)cc1
The “hERG current change (%, negative = inhibition) at 10uM” value of the first is lower: -57.9% for the first, 13.2% for the second.

Going from `O=S(=O)(Nc1nccs1)c1ccc(Cl)cc1` to `O=C(CNC(=O)c1ccccc1)OCc1nnc(-c2ccc(Cl)cc2)o1`, the “hERG current change (%, negative = inhibition) at 10uM” value falls from -6.03% to -10.4%.

Compared with `C[C@H](NC(=O)c1nc[nH]c1C(=O)N1CCN(C(=O)OC(C)(C)C)CC1)C(=O)OC(C)(C)C`, `CCOC(=O)c1c(C)[nH]c(C)c1C(=O)COC(=O)[C@@H](NC(=O)c1ccccc1OCC)C(C)C` is lower in “hERG current change (%, negative = inhibition) at 10uM” value: 2.39% for the first, -10.7% for the second.

Going from `CC(C(=O)NCc1ccccc1)N1C(=O)CN(C)C(=O)c2ccccc21` (stereo not shown) to `O=C(OCc1nnc(-c2ccccc2)o1)C1CC(=O)N(c2ccccc2)C1` (stereo not shown), the “hERG current change (%, negative = inhibition) at 10uM” value falls from 11.6% to -21.5%.

Going from `CCCCn1c(CCC(=O)O)nc2cc(S(=O)(=O)N(C)C)ccc21` to `CCOCCCNCc1cccc(OC)c1.O=C(O)C(=O)O`, the “hERG current change (%, negative = inhibition) at 10uM” value falls from 15.3% to 3.11%.

First: COc1nnc(-c2ccc(N3CCOCC3)c(NC(=O)c3ccc(C)cc3)c2)c2ccccc12
Second: CC1CN(S(=O)(=O)c2ccc(C(=O)Nc3ccc(S(=O)(=O)N4CCOCC4)cc3)cc2)CC(C)O1 (stereo not shown)
The “hERG current change (%, negative = inhibition) at 10uM” value of the first is lower: -68.9% for the first, 19.9% for the second.

First: COc1ccc(-c2c(C(F)(F)F)[nH]n3c(=O)cc(-c4ccccc4)nc23)cc1
Second: COc1ccc(NS(=O)(=O)c2cccc(N3CC(O)=C(c4ccccc4)C3=N)c2)cc1
The “hERG current change (%, negative = inhibition) at 10uM” value of the first is lower: 8.64% for the first, 40.4% for the second.

Compared with `O=C(NNC(=O)c1ccc[nH]1)c1cc(Cl)cc(Cl)c1`, `Cc1ccc(C(=O)NNC(=S)Nc2cccc(Cl)c2Cl)cc1[N+](=O)[O-]` is higher in “hERG current change (%, negative = inhibition) at 10uM” value: 19.3% for the first, 22% for the second.

Going from `COC(=O)Nc1nc2ccc(Br)cc2s1` to `CNC(=O)c1ccc2nc(NC(C)=O)sc2c1`, the “hERG current change (%, negative = inhibition) at 10uM” value falls from 9.64% to -14.8%.

Compared with `CCCCOc1ccc(C(O)(CC)CCN2CCOCC2)cc1` (stereo not shown), `CCN(CC)c1ccc(C(=O)OCC(=O)NCC2CCCO2)cc1` (stereo not shown) is lower in “hERG current change (%, negative = inhibition) at 10uM” value: -13.4% for the first, -31.2% for the second.

First: Cc1onc(-c2c(F)cccc2Cl)c1C(=O)Nc1cccc2nsnc12
Second: COc1ccc(C(=O)O)cc1NS(=O)(=O)c1cccc2nsnc12
The “hERG current change (%, negative = inhibition) at 10uM” value of the first is lower: -20.6% for the first, 7.93% for the second.

Compared with `C=CCC1(C#N)C(=S)NC(C)=C(C(=O)OCC)C1c1ccccc1` (stereo not shown), `COCC(=O)OC/C(O)=C(\C#N)c1nc2ccccc2[nH]1` is higher in “hERG current change (%, negative = inhibition) at 10uM” value: 4.07% for the first, 11% for the second.

First: COc1cc2c(cc1OC)C(C)N(C(=O)c1ccc(Cl)c(S(=O)(=O)N3CCCCC3)c1)CC2 (stereo not shown)
Second: Cc1c(C(=O)N2CCN(c3ccc([N+](=O)[O-])cc3)CC2)sc2ncn(CC(=O)N3CCOCC3)c(=O)c12
The “hERG current change (%, negative = inhibition) at 10uM” value of the first is higher: -40.1% for the first, -62.2% for the second.

Compared with `CC(C)NC(=O)c1ccc(C(C)C)cc1`, `COc1cc(OC)cc(C(=O)N[C@H](C(=O)OCC(=O)Nc2sccc2C#N)C(C)C)c1` is lower in “hERG current change (%, negative = inhibition) at 10uM” value: 25.4% for the first, -13.3% for the second.

Compared with `O=C(Nc1nnc(CCc2ccccc2)s1)c1cccs1`, `CCc1nnc(NC(=O)CCC(=O)N2CCN(CCc3ccccc3)CC2)s1` is lower in “hERG current change (%, negative = inhibition) at 10uM” value: 15.4% for the first, -9.65% for the second.

Going from `O=C(Nc1cccc(-n2cnnn2)c1)c1ccc(OC(F)(F)F)cc1` to `CC(/C=C1\SC(=S)N(CCC(=O)Nc2cccc(C(=O)O)c2)C1=O)=C\c1ccccc1`, the “hERG current change (%, negative = inhibition) at 10uM” value rises from -47.4% to 10.9%.

Going from `CSc1ncnc2c1ccn2CC(=O)Nc1ccc(C)c(C)c1` to `C/C(CC(=O)Nc1ccc2c(c1)OCO2)=N\NC(=O)c1ccc(N)cc1`, the “hERG current change (%, negative = inhibition) at 10uM” value falls from 14.3% to 5.8%.

First: Cc1nc(SCc2cccc(F)c2)c2oc3ccccc3c2n1
Second: COc1cc(C)nc(Oc2ccc(OCc3ccccc3)nn2)n1
The “hERG current change (%, negative = inhibition) at 10uM” value of the first is higher: 20.2% for the first, -0.784% for the second.

Compared with `O=S(=O)(c1ccccc1)N(CC1CO1)c1cccc2ccccc12` (stereo not shown), `Cc1ccc(C2=Nc3cccnc3C(c3ccccc3)=NN2)cc1` is higher in “hERG current change (%, negative = inhibition) at 10uM” value: -11.9% for the first, 0.802% for the second.

Compared with `CC(=O)n1cc([C@H]2C=C(C(=O)N3CCN(Cc4ccccc4)CC3)O[C@@H](OCc3ccc(CO)cc3)C2)c2ccccc21`, `CSCCC(NC(=O)c1ccco1)C(=O)N1CC=C(c2ccccc2)CC1` (stereo not shown) is lower in “hERG current change (%, negative = inhibition) at 10uM” value: -24% for the first, -48% for the second.

Compared with `COC(C[C@H](O)C[C@H](O)[C@H](C)OCc1ccccc1)OC`, `COC(=O)NCc1cccc(CNC(=O)OC)c1` is lower in “hERG current change (%, negative = inhibition) at 10uM” value: 9.09% for the first, 3.66% for the second.

Compared with `O=C1CSC(=S)N1/N=C/c1cccc(C(F)(F)F)c1`, `Nc1cc(=O)[nH]c(SCc2ccccc2Cl)n1` is lower in “hERG current change (%, negative = inhibition) at 10uM” value: 7.26% for the first, 3.76% for the second.

First: Cn1ncc(Cl)c1C(=O)N1CCN(c2ncccn2)CC1
Second: C=CCn1c(O)c(C(C)=NCCC2=CCCCC2)c(=O)[nH]c1=O
The “hERG current change (%, negative = inhibition) at 10uM” value of the first is higher: 13.7% for the first, 0.12% for the second.

Going from `Cc1cc(=O)oc(C)c1C(=O)NNC(=O)C1(C)CC1Br` (stereo not shown) to `OC(CNCc1ccc2c(c1)OCO2)COc1ccc(F)cc1` (stereo not shown), the “hERG current change (%, negative = inhibition) at 10uM” value falls from 22.3% to -55.7%.
